Laboratory results taken from the supplement of paper PMC9927326.
MIC of clinical C. albicans isolates, CLSI broth microdilution (ranges and time not stated); higher = less susceptible. Call: susceptible or wild type [S] / resistant or non-wild type [R] by CLSI breakpoints or epidemiological cut-offs; intermediate and dose-dependent carry no call here (the paper groups them with resistant). '<=' and '>=' mark each drug's lowest and highest value, inferred; the source prints them plain. Isolates are numbered anew.

How the values were obtained:
Assay in all cases: CLSI broth microdilution.
voriconazole = compound: C[C@@H](c1ncncc1F)[C@](O)(Cn1cncn1)c1ccc(F)cc1F [voriconazole]
itraconazole = compound: CCC(C)n1ncn(-c2ccc(N3CCN(c4ccc(OCC5COC(Cn6cncn6)(c6ccc(Cl)cc6Cl)O5)cc4)CC3)cc2)c1=O [itraconazole]
caspofungin = compound: CC[C@H](C)C[C@H](C)CCCCCCCCC(=O)N[C@H]1C[C@@H](O)[C@@H](NCCN)NC(=O)[C@@H]2[C@@H](O)CCN2C(=O)[C@H]([C@H](O)CCN)NC(=O)[C@H]([C@H](O)[C@@H](O)c2ccc(O)cc2)NC(=O)[C@@H]2C[C@@H](O)CN2C(=O)[C@H]([C@@H](C)O)NC1=O [caspofungin]
micafungin = compound: CCCCCOc1ccc(-c2cc(-c3ccc(C(=O)N[C@H]4C[C@@H](O)[C@@H](O)NC(=O)[C@@H]5[C@@H](O)[C@@H](C)CN5C(=O)[C@H]([C@H](O)CC(N)=O)NC(=O)[C@H]([C@H](O)[C@@H](O)c5ccc(O)c(OS(=O)(=O)O)c5)NC(=O)[C@@H]5C[C@@H](O)CN5C(=O)[C@H]([C@@H](C)O)NC4=O)cc3)no2)cc1 [micafungin]
amphotericin B = compound: C[C@@H]1[C@H](O)[C@@H](C)/C=C/C=C/C=C/C=C/C=C/C=C/C=C/[C@H](O[C@@H]2O[C@H](C)[C@@H](O)[C@H](N)[C@@H]2O)C[C@@H]2O[C@](O)(C[C@@H](O)C[C@@H](O)[C@H](O)CC[C@@H](O)C[C@@H](O)CC(=O)O[C@H]1C)C[C@H](O)[C@H]2C(=O)O [amphotericin B]
posaconazole = compound: CC[C@@H]([C@H](C)O)n1ncn(-c2ccc(N3CCN(c4ccc(OC[C@@H]5CO[C@@](Cn6cncn6)(c6ccc(F)cc6F)C5)cc4)CC3)cc2)c1=O [posaconazole]
flucytosine = compound: Nc1[nH]c(=O)ncc1F [flucytosine]
anidulafungin = compound: CCCCCOc1ccc(-c2ccc(-c3ccc(C(=O)N[C@H]4C[C@@H](O)[C@@H](O)NC(=O)[C@@H]5[C@@H](O)[C@@H](C)CN5C(=O)[C@H]([C@@H](C)O)NC(=O)[C@H]([C@H](O)[C@@H](O)c5ccc(O)cc5)NC(=O)[C@@H]5C[C@@H](O)CN5C(=O)[C@H]([C@@H](C)O)NC4=O)cc3)cc2)cc1 [anidulafungin]
fluconazole = compound: OC(Cn1cncn1)(Cn1cncn1)c1ccc(F)cc1F [fluconazole]

Row | Test System | MIC (voriconazole) | MIC (itraconazole) | MIC (caspofungin) | MIC (micafungin) | MIC (amphotericin B) | MIC (posaconazole) | MIC (flucytosine) | MIC (anidulafungin) | MIC (fluconazole)
1 | Candida albicans isolate 343 (Erg11p: D153E, Fur1p: WT, Tac1p: N896S) | ≤ 0.008 mg/L [S] | 0.06 mg/L [S] | 0.03 mg/L [S] | 0.015 mg/L [S] | 0.25 mg/L [S] | 0.03 mg/L [S] | 0.12 mg/L [S] | 0.06 mg/L [S] | 0.25 mg/L [S]
2 | Candida albicans isolate 18 (Erg11p: E266D, Fur1p: WT, Tac1p: T885K,I558V,A430V,A377V,M170V) | ≤ 0.008 mg/L [S] | ≤ 0.015 mg/L [S] | 0.03 mg/L [S] | ≤ 0.008 mg/L [S] | 0.25 mg/L [S] | 0.015 mg/L [S] | ≤ 0.06 mg/L [S] | ≤ 0.015 mg/L [S] | 0.25 mg/L [S]
3 | Candida albicans isolate 53 (Erg11p: V488I,E266D, Fur1p: WT, Tac1p: N896S,I895T) | ≤ 0.008 mg/L [S] | 0.12 mg/L [S] | 0.03 mg/L [S] | 0.015 mg/L [S] | 0.5 mg/L [S] | 0.06 mg/L [S] | ≤ 0.06 mg/L [S] | ≤ 0.015 mg/L [S] | 0.5 mg/L [S]
4 | Candida albicans isolate 177 (Erg11p: V488I,E266D, Fur1p: WT, Tac1p: N896S,A377V,F189S,N174D,M170I,K87N) | 0.015 mg/L [S] | 0.03 mg/L [S] | 0.03 mg/L [S] | 0.015 mg/L [S] | 0.5 mg/L [S] | 0.015 mg/L [S] | ≤ 0.06 mg/L [S] | ≤ 0.015 mg/L [S] | 0.5 mg/L [S]
5 | Candida albicans isolate 363 (Erg11p: V488I,E266D, Fur1p: WT, Tac1p: N896S,A377V,F189S,N174D,M170I,K87N) | ≤ 0.008 mg/L [S] | 0.03 mg/L [S] | 0.015 mg/L [S] | 0.015 mg/L [S] | 0.25 mg/L [S] | 0.015 mg/L [S] | ≤ 0.06 mg/L [S] | 0.06 mg/L [S] | 0.25 mg/L [S]
6 | Candida albicans isolate 105 (Erg11p: V488I,E266D, Fur1p: WT, Tac1p: N896S,I558V,A377V,F189S,N174D,M170I,K87N) | ≤ 0.008 mg/L [S] | 0.06 mg/L [S] | 0.12 mg/L [S] | 0.03 mg/L [S] | 0.5 mg/L [S] | 0.03 mg/L [S] | ≤ 0.06 mg/L [S] | 0.06 mg/L [S] | 0.5 mg/L [S]
7 | Candida albicans isolate 173 (Erg11p: V488I,E266D, Fur1p: WT, Tac1p: N896S,T229I,M170V,S108N) | 0.015 mg/L [S] | 0.06 mg/L [S] | 0.03 mg/L [S] | 0.015 mg/L [S] | 0.25 mg/L [S] | 0.03 mg/L [S] | ≤ 0.06 mg/L [S] | 0.03 mg/L [S] | 1 mg/L [S]
8 | Candida albicans isolate 104 (Erg11p: Y257H,A114S, Fur1p: R101C, Tac1p: A736V) | 1 mg/L [R] | 0.5 mg/L [R] | 0.03 mg/L [S] | 0.015 mg/L [S] | 0.5 mg/L [S] | 1 mg/L [R] | 0.12 mg/L [S] | ≤ 0.015 mg/L [S] | 32 mg/L [R]
9 | Candida albicans isolate 96 (Erg11p: WT, Fur1p: WT, Tac1p: N896S) | ≤ 0.008 mg/L [S] | 0.06 mg/L [S] | 0.06 mg/L [S] | ≤ 0.008 mg/L [S] | 0.5 mg/L [S] | 0.015 mg/L [S] | ≤ 0.06 mg/L [S] | 0.03 mg/L [S] | 0.25 mg/L [S]
10 | Candida albicans isolate 230 (Erg11p: K143R,Y132H,T123I, Fur1p: R101C, Tac1p: WT) | 2 mg/L [R] | 0.5 mg/L [R] | 0.03 mg/L [S] | ≤ 0.008 mg/L [S] | 0.5 mg/L [S] | 0.12 mg/L [R] | 0.5 mg/L [S] | ≤ 0.015 mg/L [S] | 32 mg/L [R]
11 | Candida albicans isolate 145 (Erg11p: E266D, Fur1p: WT, Tac1p: N896S) | ≤ 0.008 mg/L [S] | 0.03 mg/L [S] | 0.06 mg/L [S] | 0.015 mg/L [S] | 0.5 mg/L [S] | 0.015 mg/L [S] | ≤ 0.06 mg/L [S] | 0.06 mg/L [S] | 0.5 mg/L [S]
12 | Candida albicans isolate 138 (Erg11p: E266D, Fur1p: WT, Tac1p: C908Y,A377V,N174D,M170I,I109N,K87N) | ≤ 0.008 mg/L [S] | 0.03 mg/L [S] | 0.015 mg/L [S] | ≤ 0.008 mg/L [S] | 0.5 mg/L [S] | 0.015 mg/L [S] | ≤ 0.06 mg/L [S] | 0.03 mg/L [S] | 0.25 mg/L [S]
13 | Candida albicans isolate 147 (Erg11p: V488I,L301S,E266D, Fur1p: WT, Tac1p: N896S,M170V,S108N) | ≥ 8 mg/L [R] | ≥ 16 mg/L [R] | 0.06 mg/L [S] | ≤ 0.008 mg/L [S] | 0.5 mg/L [S] | ≥ 8 mg/L [R] | ≤ 0.06 mg/L [S] | 0.12 mg/L [S] | 128 mg/L [R]
14 | Candida albicans isolate 194 (Erg11p: Y132H,T123I, Fur1p: R101C, Tac1p: WT) | 0.25 µg/mL | 0.03 mg/L [S] | 0.015 mg/L [S] | 0.015 mg/L [S] | 0.25 mg/L [S] | 0.015 mg/L [S] | 0.25 mg/L [S] | ≤ 0.015 mg/L [S] | 2 µg/mL
15 | Candida albicans isolate 329 (Erg11p: K342R,E266D, Fur1p: WT, Tac1p: N896S,I895T,I558V,A377V,F189S,N174D,M170I,K87N) | ≤ 0.008 mg/L [S] | ≤ 0.015 mg/L [S] | 0.03 mg/L [S] | 0.015 mg/L [S] | 0.5 mg/L [S] | 0.015 mg/L [S] | ≤ 0.06 mg/L [S] | ≤ 0.015 mg/L [S] | 0.25 mg/L [S]
16 | Candida albicans isolate 8 (Erg11p: WT, Fur1p: WT, Tac1p: WT) | ≤ 0.008 mg/L [S] | 0.06 mg/L [S] | 0.015 mg/L [S] | 0.015 mg/L [S] | 0.5 mg/L [S] | 0.015 mg/L [S] | ≤ 0.06 mg/L [S] | ≤ 0.015 mg/L [S] | 0.5 mg/L [S]
17 | Candida albicans isolate 6 (Erg11p: V437I,E266D, Fur1p: WT, Tac1p: F189S,N174D,M170I,A90T,K87N) | ≥ 8 mg/L [R] | ≥ 16 mg/L [R] | 0.03 mg/L [S] | ≤ 0.008 mg/L [S] | 1 mg/L [S] | ≥ 8 mg/L [R] | ≤ 0.06 mg/L [S] | ≤ 0.015 mg/L [S] | ≥ 256 mg/L [R]
